In publication PMC4336329 (PLoS ONE, 2015):
The campaign covered roughly 310,000 compounds. About 14,000 (4.5%) showed an effect of 50% or more. The effect is printed as a negative number. The list shows a part of the results.

molecular target: human ether-à-go-go-related gene (hERG) potassium channel (human, UniProt Q12809); assay: primary screen, population patch clamp on CHO cells stably expressing hERG
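Note: peak tail current of the secondary pulse compared with the same well before compound.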

Sequence of human ether-à-go-go-related gene (hERG) potassium channel (Q12809 whole entry, looked up): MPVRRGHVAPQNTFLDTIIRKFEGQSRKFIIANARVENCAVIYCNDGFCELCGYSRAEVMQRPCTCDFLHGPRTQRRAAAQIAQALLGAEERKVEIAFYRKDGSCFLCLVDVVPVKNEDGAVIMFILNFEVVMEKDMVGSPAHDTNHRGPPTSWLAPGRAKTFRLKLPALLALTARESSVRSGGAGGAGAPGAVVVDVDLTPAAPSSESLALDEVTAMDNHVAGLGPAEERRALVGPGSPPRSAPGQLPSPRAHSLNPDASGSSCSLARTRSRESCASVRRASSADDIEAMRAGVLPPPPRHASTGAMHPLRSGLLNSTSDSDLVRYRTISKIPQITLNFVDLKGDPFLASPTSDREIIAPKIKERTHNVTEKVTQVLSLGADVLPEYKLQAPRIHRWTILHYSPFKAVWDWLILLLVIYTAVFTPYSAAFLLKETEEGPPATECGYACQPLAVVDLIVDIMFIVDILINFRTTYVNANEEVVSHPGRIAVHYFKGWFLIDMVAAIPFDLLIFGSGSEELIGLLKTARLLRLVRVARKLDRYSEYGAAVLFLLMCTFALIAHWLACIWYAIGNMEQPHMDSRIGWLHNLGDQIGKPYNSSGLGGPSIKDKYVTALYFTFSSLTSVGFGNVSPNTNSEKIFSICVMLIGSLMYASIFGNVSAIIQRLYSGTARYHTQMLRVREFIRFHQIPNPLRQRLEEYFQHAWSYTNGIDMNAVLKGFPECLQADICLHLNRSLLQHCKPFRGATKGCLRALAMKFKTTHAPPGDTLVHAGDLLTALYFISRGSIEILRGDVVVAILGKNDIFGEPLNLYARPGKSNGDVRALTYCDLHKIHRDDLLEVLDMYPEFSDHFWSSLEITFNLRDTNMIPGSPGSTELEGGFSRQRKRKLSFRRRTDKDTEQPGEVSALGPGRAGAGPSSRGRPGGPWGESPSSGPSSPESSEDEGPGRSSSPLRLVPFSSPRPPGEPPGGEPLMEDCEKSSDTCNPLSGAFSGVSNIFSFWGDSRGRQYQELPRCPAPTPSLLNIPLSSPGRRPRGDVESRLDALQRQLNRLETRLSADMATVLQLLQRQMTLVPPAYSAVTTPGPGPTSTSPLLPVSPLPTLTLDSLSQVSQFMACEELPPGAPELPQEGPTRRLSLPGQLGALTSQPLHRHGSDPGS

Compound | hERG current change (%, negative = inhibition) at 10uM [%]
COc1ccc(C2(O)CC3CCC(C2)N3c2nc(C)cc(C)c2C#N)cc1 (stereo not shown) | -3.97
Cc1cc(C)cc(NC(=O)CSc2nc3nc(C)cc(C)c3c(=O)[nH]2)c1 | 1.97
CCCOc1ccc(C(=O)Nc2cc(S(=O)(=O)N3CCOCC3)ccc2N2CCOCC2)cc1 | -42.2
CCC(=NCCCN1CCOCC1)c1c(O)n(-c2ccccc2C)c(=O)[nH]c1=O | 8.28
CCCS(=O)(=O)c1c(S(=O)(=O)CCC)c2ccc(C(N)=O)cn2c1C(=O)c1ccccc1 | 12.3
CNC(=O)c1[nH]cnc1C(=O)Nc1ccc(F)cc1 | 12
Cc1nn(-c2ccccc2)c(C)c1NC(=O)Cc1cccs1 | -11.7
COc1ccccc1-c1oc2ccccc2c1-c1ccc2cc[nH]c2c1 | 17.9
CCCCN(C)C(=O)c1ccc2c(c1)S(=O)(=O)c1ccccc1C2=O | -24.4
Cc1cccn2cc(-c3cccc(S(=O)(=O)N4CC(C)OC(C)C4)c3)nc12 (stereo not shown) | -2.37
O=C(CSc1ncn(-c2ccccc2)n1)N1CCN(c2ccccc2)CC1 | -11
COc1cc(NC(=O)CN(C)Cc2cccc(F)c2)c(C)cc1[N+](=O)[O-] | 22.9
O=C(CCn1c(=O)[nH]c2ccsc2c1=O)N1CCN(c2cccc(Cl)c2)CC1 | -52.3
OCCC1CN(Cc2cn[nH]c2C2CCCCC2)CCN1C1CCCCC1 (stereo not shown) | -8
C[C@H]1C(=O)N(C)CCN1C(=O)c1cccc(OC2CCN(CC(C)(C)C)CC2)c1 | 23.3
CCOc1ccc(S(=O)(=O)N2CCCC(C(=O)NCc3ccccc3)C2)cc1 (stereo not shown) | -2
CC1Cc2ccccc2N1C(=O)CSc1nnc(CSc2ncccn2)n1C (stereo not shown) | -24.1
CN(C)c1ccc(C2(O)C(=O)c3ccccc3C2=O)cc1 | 23.4
CN1C(=O)CCC1(O)c1ccccc1 (stereo not shown) | -1.2
CCOC(=O)c1ccc(NC(=O)CCS(=O)(=O)Cc2ccccc2)cc1 | -7.77
CCn1nc(NC(=O)COC)c2cc3cccc(C)c3nc21 | 10.7
CCCCn1nnnc1SCC(=O)NC1CCCCC1 | 17.8

Compound | hERG current change (%, negative = inhibition) at 10uM [%]
Cc1c(NC(=O)c2cccc(NC(=O)COc3ccccc3)c2)c(=O)n(-c2ccccc2)n1C | 9.67
CC(C)(C)c1ccc(OCC(=O)NCCN2CCCC2)cc1.Cl | -33.7
COc1ccc(NC(=O)CNC(=O)c2sc3ccccc3c2Cl)c(OC)c1 | 0.61
COc1cc(C2Nc3ccc4ncccc4c3C3=C2C(=O)CCC3)ccc1O (stereo not shown) | 13
CC(C)(C)c1ccc(OCCC(=O)OCC(=O)NC2CCCCC2)cc1 | -31.8
CC(=O)OCC1=C(C(=O)O)N2C(=O)C(NC(=O)Cn3nc(C(F)F)c(Cl)c3C)C2SC1 (stereo not shown) | 31.1
COc1cccc(C=N[C@@H](CO)[C@@H](O)c2ccc([N+](=O)[O-])cc2)c1O | 3.07
COc1ccc(-n2c(=O)[nH]cc(C(=O)Nc3ccc4c(c3)OCCO4)c2=O)cc1OC | 6.18
Cc1cc(C(=O)OCC(=O)N(C)C2CCS(=O)(=O)C2)c(C)n1-c1ccccc1 (stereo not shown) | -15.2
CNC(=O)COC(=O)c1cc(NC(=O)c2ccco2)c(OC)c(OC)c1 | 2.4
S=c1[nH]nc(-c2ccccc2)n1/N=C/c1cccc(Br)c1 | 21.4
CC(C)C(OC(=O)c1cccc(S(=O)(=O)NCC(F)(F)F)c1)C(=O)NC(N)=O (stereo not shown) | 8.71
Cc1ccc(S(=O)(=O)CCc2nnc(NC(=O)C3CCCO3)s2)cc1 (stereo not shown) | -4.14
CC(C)N(CC#CCC(O)(c1ccccc1)C1CCCC1)CCO (stereo not shown) | -20.3
O=C(COC(=O)CN1C(=O)C2CCCCC2C1=O)NNC(=O)c1ccc(Cl)cc1 (stereo not shown) | 15.8
Cc1cccc(NC(=O)NCc2ccccn2)c1 | 2.73
Cc1nonc1N1CCN(Cc2cn[nH]c2-c2ccc(F)cc2F)CC1 | -11.9
Cc1ccccc1S(=O)(=O)N1CC(C(=O)O)=CC[C@H]1c1ccc(Cl)cc1 | 15.8
Cc1ccccc1NC(=S)N(CCN(C)C)C(C)c1ccco1 (stereo not shown) | -12.1
Nc1ccc(S(=O)(=O)Nc2nc3ccccc3o2)cc1 | 15.9
COc1ccc(N=NC2=C(O)CC(C)(C)CC2=O)cc1 | -9.39
O=C(c1ccc([N+](=O)[O-])o1)N1CCc2ccccc2C1 | -23.1

Compound | hERG current change (%, negative = inhibition) at 10uM [%]
CC1=CCC(C(=O)O)(C(=O)N/N=C/c2cccs2)C(c2ccc(Cl)cc2)C1 (stereo not shown) | -13.4
CSc1nnc2c(n1)[nH]c1c(C)cccc12 | 2.43
CN1C(=S)N2CCCN2C1c1ccccc1 (stereo not shown) | 6.96
COc1ccc(OCC(=O)OCC(=O)NC2CC2)cc1 | 7.47
COc1ccc(NC(=O)c2ccc(NC(=O)c3ccncc3)cc2)cc1 | 27
COc1ccccc1OCc1n[nH]c(=S)n1Cc1ccccc1 | 2.4
COc1ccc(Br)cc1/C=C(\C(=O)O)c1ccc(S(=O)(=O)N2CCCCC2)s1 | 0.483
CC(=O)Nc1cccc(C(=O)NC2CCCc3c2cnn3-c2ccc(C(C)(C)C)cc2)c1 (stereo not shown) | 8.12
Nc1ccc(NC(=O)c2cccs2)cc1 | 35
COc1ccc(CCNC(=O)CCC(=O)N2CCOc3ccccc32)cc1OC | -16.8
COC(=O)c1ccc(C2CC(=O)Nc3cc(OC)c(OC)cc32)cc1 (stereo not shown) | -29.2
O=C(CN1CCC(NC(=O)Nc2ccccc2)CC1)Nc1ccc([N+](=O)[O-])cc1 | -64.4
CC(=O)N(CCc1ccccc1)Cc1cc2cc(C)ccc2[nH]c1=O | -3.82
CC1CC1C(=O)NCCc1ccc(Cl)cc1 (stereo not shown) | -0.482
CC(C)c1ccccc1NC(=O)Nc1ccc(F)cc1F | 11.7
CCCCCCC(=O)Oc1cccc(N2C(=O)C3CCCCC3C2=O)c1 (stereo not shown) | 15.3
CCCCC/C=C\C[C@H](O)/C=C/c1cccc(C[C@H](O)CCCCO)n1 | 5.04
O=C(Nc1sc(-c2ccccc2)cc1C(=O)O)c1ccccc1 | 35.2
CC1C(OC(=O)CCC(=O)NC(C)(C)CO)O[C@H]2OC3(C)CC[C@H]4[C@H](C)CCC1C24OO3 (stereo partly shown) | 18.7
CNC(=O)c1[nH]cnc1C(=O)N[C@@H](CCCCNC(=O)OC(C)(C)C)C(=O)OC(C)(C)C | 6.13
O=C(COC(=O)CCCNC(=O)c1ccc(Cl)cc1)NC1CC1 | 12.7
O=C(CCN1C(=O)c2ccccc2C1=O)N1CCN(Cc2ccccc2)CC1 | -22.8

Compound | hERG current change (%, negative = inhibition) at 10uM [%]
CC(=O)NC(CC(=O)N(C)Cc1c(F)cccc1Cl)c1ccccc1 (stereo not shown) | -4.66
CCNC(=O)C1CC(=O)N(Cc2ccc3c(c2)OCO3)C(=Nc2ccc(F)cc2)S1 (stereo not shown) | 15.5
CCOC(=O)CC(=O)CSc1ncnc2c1cnn2-c1ccccc1 | 9
Cc1cccc(S(=O)(=O)N2CCC(CO)(Cc3ccccc3)CC2)c1 | -2.74
CC1=CC2=NC(=O)/C(=C\c3cccn3CCOc3cccc(C)c3)C(=N)N2O1 | -1.66
Nc1cc(Cl)ccc1Nc1ccncc1 | 5.65
Cc1ccc(S(=O)(=O)N2CCN(Cc3nc4sc5c(c4c(=O)[nH]3)CCCC5)CC2)cc1 | -21.3
COc1cc2c(cc1NC(=O)C(C)OC(=O)C1CC(=O)N(Cc3ccco3)C1)oc1ccccc12 (stereo not shown) | -1.77
CCc1ccc(-n2c(=O)c3c(C)c(C)sc3n(CC(=O)NCC3CCCO3)c2=O)cc1 (stereo not shown) | 5.92
CC(=O)Nc1ccc(S(=O)(=O)N2CCCN(c3nc(C)cc(C)c3C#N)CC2)cc1 | 8.86
O=C(C1CCC(=O)N(C2CC2)C1)N1CCN(c2ccccc2Cl)CC1 (stereo not shown) | 13.1
O=S(=O)(NCc1cccnc1)c1cccn1-c1ncc(C(F)(F)F)cc1Cl | -9.38
CCCc1ccc(OCC(=O)Nc2cc(S(=O)(=O)CC)ccc2O)cc1 | -58.1
Cc1ccc(C(C)C)c(OCC(=O)NN=C2CCCCCCC2)c1 | 0.119
CCC(C)OC(=O)c1c(N)n(Cc2cccs2)c2nc3ccccc3nc12 (stereo not shown) | -2.01
O=[N+]([O-])c1ccc2c(c1)CNc1ccccc1O2 | -16.7
COc1ccccc1NC(=O)Nc1ccc2[nH]c(=O)[nH]c2c1 | 23.3
CCOC(=O)c1ccc(NC(=O)N2CCc3ccccc32)cc1 | -3.07
Cc1cc(C(=O)NC(=S)Nc2cccc(C(=O)O)c2C)ccc1[N+](=O)[O-] | 25.9
COCCN(C(=O)COC(=O)COc1ccc(Cl)c(C)c1)c1c(N)n(Cc2ccccc2)c(=O)[nH]c1=O | -25.1
CCOc1ccc(S(=O)(=O)N2CCN(C)CC2)c(C)c1C | -11.4
CCCCNC(=S)NNC(=O)c1cccnc1 | -4.29
